The supplement of paper PMC3334620
Whole data set: some 33,000 sequences, median “E-score (-0.5 to 0.5)” near -0.013, cut for the highest 2% near 0.3. The list shows a part of the results.

Each sequence was assayed against T1, Msn1 (UniProt P22148) (assay: PBM E-score (8-mer binding enrichment) (E-score (-0.5 to 0.5)); higher = stronger / more preferred TF binding; most listed sequences are background and not binding sites). Conditions: protein concentration: 200 nM; construct: GST-full length.
T1 sequence: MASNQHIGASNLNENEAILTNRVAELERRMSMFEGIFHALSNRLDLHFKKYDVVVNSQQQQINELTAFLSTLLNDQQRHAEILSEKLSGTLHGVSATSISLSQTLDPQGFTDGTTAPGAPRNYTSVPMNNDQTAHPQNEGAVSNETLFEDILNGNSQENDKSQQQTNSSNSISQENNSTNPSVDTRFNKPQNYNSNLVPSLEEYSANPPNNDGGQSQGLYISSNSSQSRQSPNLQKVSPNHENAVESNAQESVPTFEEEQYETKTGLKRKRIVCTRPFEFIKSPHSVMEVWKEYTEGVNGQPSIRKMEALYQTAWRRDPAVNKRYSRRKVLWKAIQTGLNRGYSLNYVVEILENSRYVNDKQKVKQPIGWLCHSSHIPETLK
In short: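 For each ungapped eight-base word taken together with its reverse complement, the Universal PBM Analysis Suite assigned an E-score. Binding data came from GST-tagged yeast transcription factors, applied at about 100-200 nM, on universal all-10-mer Agilent arrays made double-stranded by primer extension. Fluorescent anti-GST marked bound protein, and scans were normalised with masliner.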

First: GCGTACTA
Second: AGCGCGCC
The “PBM E-score” value of the first is higher: 0.0747 for the first, -0.1 for the second.

First: GACACCCC
Second: AGGACAGC
The “PBM E-score” value of the first is lower: -0.138 for the first, 0.078 for the second.

Compared with CACTAACC, ACAAGTGA is higher in “PBM E-score” value: -0.077 for the first, 0.195 for the second.

Compared with CGAAGTGA, ACGTTCGG is lower in “PBM E-score” value: -0.0371 for the first, -0.0537 for the second.

Going from GCACGAGC to GCATAGAC, the “PBM E-score” value rises from -0.242 to 0.114.

First: AGAAACAT
Second: AGGGACCA
The “PBM E-score” value of the first is higher: 0.157 for the first, -0.188 for the second.

First: AGTCTACC
Second: ACTGTTAG
The “PBM E-score” value of the first is lower: -0.177 for the first, -0.076 for the second.

Compared with GCTCCGCC, AGAAACTC is higher in “PBM E-score” value: -0.197 for the first, 0.0918 for the second.

Going from CCGGTCAC to CTCAACTC, the “PBM E-score” value rises from -0.068 to 0.0683.

Going from ATACAGGA to GCTACTCA, the “PBM E-score” value falls from 0.19 to -0.15.

Compared with AACGATCT, ACCATCGG is lower in “PBM E-score” value: -0.0388 for the first, -0.0852 for the second.

First: AGCGCACT
Second: ACCGCGTA
The “PBM E-score” value of the first is lower: -0.118 for the first, -0.0135 for the second.

First: CCAACGGA
Second: ACAACCCC
The “PBM E-score” value of the first is higher: -0.08 for the first, -0.0844 for the second.

Compared with GATGGTAC, ATCAGATC is lower in “PBM E-score” value: 0.111 for the first, -0.121 for the second.

Compared with CAATTGTA, AACGAGTA is lower in “PBM E-score” value: 0.184 for the first, 0.0188 for the second.

Compared with CGTGGATA, AGCACACT is lower in “PBM E-score” value: 0.068 for the first, -0.0827 for the second.

Going from ATCCAGTC to AAGCGGTC, the “PBM E-score” value falls from 0.0952 to -0.00589.

Compared with ACGTTCAG, GCGGTACA is higher in “PBM E-score” value: -0.0415 for the first, 0.0441 for the second.

Going from AGACTACC to ATCAAACC, the “PBM E-score” value rises from 0.0803 to 0.0967.

Going from GCATAGCC to CTTCGCTC, the “PBM E-score” value rises from -0.214 to -0.125.

Compared with GGTTAATA, CAGCTGGG is lower in “PBM E-score” value: 0.143 for the first, -0.182 for the second.

Compared with CTGCCGTC, GAAATCCA is higher in “PBM E-score” value: -0.268 for the first, -0.0457 for the second.

Compared with AAGTGATT, ATTCCTCC is lower in “PBM E-score” value: 0.156 for the first, -0.124 for the second.

Compared with CTAACGAA, CTGTTCGA is lower in “PBM E-score” value: 0.0284 for the first, -0.107 for the second.

First: GGGTGAAC
Second: ATAGACCG
The “PBM E-score” value of the first is higher: -0.0473 for the first, -0.0549 for the second.

Compared with GACTTTTA, CTGTTGCC is lower in “PBM E-score” value: 0.29 for the first, 0.0672 for the second.

Going from GTGTTTAA to ACGATTAG, the “PBM E-score” value falls from 0.133 to 0.0217.

Going from GCAAAAGA to ATAGCCCG, the “PBM E-score” value falls from 0.034 to -0.17.

Going from ATACGCGG to AGGGACTG, the “PBM E-score” value falls from 0.0145 to -0.191.

Compared with CCCCTCCA, ACGATGGG is higher in “PBM E-score” value: -0.222 for the first, -0.133 for the second.

Going from CTATAACA to AGATTCCC, the “PBM E-score” value falls from 0.0404 to -0.107.

Compared with AACTGCTC, CCTGGGGC is lower in “PBM E-score” value: -0.0985 for the first, -0.376 for the second.

Going from ACATGAAT to CGCTCTCC, the “PBM E-score” value falls from 0.0842 to -0.23.

Compared with CATCTGCC, CATTTCAC is higher in “PBM E-score” value: -0.0408 for the first, 0.148 for the second.

Going from TAATCAGA to GCCCTCAC, the “PBM E-score” value falls from -0.0476 to -0.32.

First: CTCCGCAC
Second: CCATTATC
The “PBM E-score” value of the first is lower: -0.0661 for the first, 0.0533 for the second.

Compared with CCAGTCCG, GTTGGCTA is lower in “PBM E-score” value: -0.0618 for the first, -0.0624 for the second.

First: ACGCGCCC
Second: AACAGATC
The “PBM E-score” value of the first is lower: -0.102 for the first, -0.0552 for the second.

First: GGGTTACC
Second: CGTGCAAC
The “PBM E-score” value of the first is lower: -0.117 for the first, -0.075 for the second.

First: GTCTTAGA
Second: AATACAGG
The “PBM E-score” value of the first is higher: 0.238 for the first, 0.0823 for the second.

Compared with GCTGCTAA, ATAGCCTA is higher in “PBM E-score” value: -0.228 for the first, -0.0229 for the second.

Going from ATAACGGA to AGGCTTAT, the “PBM E-score” value falls from 0.188 to -0.0752.

First: GGCCACCA
Second: CGTCCATA
The “PBM E-score” value of the first is lower: -0.0221 for the first, 0.236 for the second.
